Measured values taken from PubChem BioAssay AID463173 (ICCB-Longwood Screening Facility, Harvard Medical School, 2010).
The whole screen tested about 52,000 compounds, of which about 4,300 (8.3%) were called active. No stated cut-off is given here; in the data, active means survival mostly below about 52% (no sharp cut-off); inactive means mostly above about 56%. The list shows a part of the results.

System: DeltatarO mutant
Test: growth inhibition of S. aureus wild type versus tarO mutant, primary screen, teichoic acid synthesis inhibitors, RN4220, OD600 (AID 463173)
Conditions: OD600, 18 h, hits give low values, screened at 18.75 µg/mL (by protocol)

Compound | survival
COc1ccc(CNc2ccc3cc(S(=O)(=O)N4CCCCC4)ccc3n2)cc1 | inactive: 79%
CC1CCN(C(=O)CN2CCSc3ccccc32)CC1 | inactive: 90%
CCN(CC)c1ccc(C(=O)NCCN)cc1 | inactive: 115%
O=C(Nc1ccc(SC(F)F)cc1)c1cc(-c2cccs2)on1 | inactive: 92%
COC(=O)c1sc2cccc(F)c2c1S(=O)(=O)N1CCN(c2ccccc2OC)CC1 | inactive: 60%
COc1ccc(OC)c(NC(=O)CSc2nc(-c3ccccc3C)nc3cc(=O)[nH]n23)c1 | inactive: 67%
Cc1ccc(CNC(=O)CN(c2ccc(C(C)C)cc2)S(=O)(=O)c2c(C)n[nH]c2C)cc1 | active: 43%
COc1cccc(NC(=O)CN2CCCN(S(=O)(=O)c3ccc(Br)cc3)CC2)c1 | inactive: 58%
COc1ccc(Cn2ccnc2SCC(=O)Nc2ccc(C)cc2C)cc1 | inactive: 83%
CC(C)(C)CC(=O)Nc1nnc2n1CCS2 | inactive: 83%
CCCC(=O)NCC(c1ccc2c(c1)OCO2)N1CCOCC1 (centres undefined) | inactive: 92%
O=C(COc1ccc(Cl)cc1)Nc1ccccc1C(=O)OCc1cc(=O)n2ccsc2n1 | inactive: 92%
O=C(NCCSCc1c(F)cccc1Cl)C1CCN(S(=O)(=O)Cc2ccccc2)CC1 | inactive: 68%
COc1ccccc1CNC(=O)CN1C(=O)CSc2c1c(C)nn2-c1ccccc1 | inactive: 101%
Cc1cc(C)c2c(=O)c3c(oc2c1)C(=O)N(Cc1ccc(F)cc1)C3c1cccc(O)c1 (centres undefined) | active: 52%
CCc1ccc(CSc2nc(-c3ccccc3OC)nc3c2Cc2c(CO)cnc(C)c2O3)cc1 | inactive: 90%
CCCn1c(=N)c(C(=O)NCc2cccnc2)cc2c(=O)n3cc(C)ccc3nc21 | inactive: 67%
O=C(c1cnc2cc(-c3ccccc3)nn2c1)c1cc([N+](=O)[O-])ccc1O | active: 9%
CC1(N2CCOCC2)CC(=O)N(c2ccccc2)O1 (centres undefined) | active: 62%
COc1cccc(/C=C/c2nc(C#N)c(N3CCCCC3)o2)c1 | inactive: 56%
O=C(C1CCCN(S(=O)(=O)c2cccc3nonc23)C1)N1CCN(c2cccc(Cl)c2)CC1 (centres undefined) | inactive: 48%
Cc1ccccc1Cn1nc(C)c(NC(=O)c2cc(-c3ccc(F)cc3)on2)c1C | inactive: 72%
CCOc1ccccc1CNc1ncnc2c1nc1n2CCCC1 | inactive: 88%

Compound | survival
CSc1ccc(CCNC(=O)CCc2c(C)nc3c(-c4ccccc4)c(C)nn3c2C)cc1 | inactive: 53%
COC(=O)c1ccc2c(=O)n(CCCCCC(=O)NCc3ccccc3)c(=O)[nH]c2c1 | inactive: 71%
Cc1cccc(-n2c3c(cc(-c4nc(-c5ccc(Cl)cc5)cs4)c2=O)C(=O)CC(C)(C)C3)c1 | active: 62%
O=C(CN1CCSc2ccccc21)N1CCN(c2ccccc2)CC1 | inactive: 104%
CCOC(=O)c1c(NC(=O)/C=C/c2ccc(OC)c(OC)c2)sc(C(C)=O)c1C | inactive: 118%
CCc1ccc(NC(=O)c2cc(-c3cccs3)on2)cc1 | inactive: 161%
CC(=O)c1ccc(NS(=O)(=O)c2cc3[nH]c(=O)c(=O)[nH]c3cc2C)cc1 | inactive: 135%
Cc1ccc(C)c(N2CCN(C(=O)Cn3ncc4c(=O)oc5ccc(C)cc5c43)CC2)c1 | inactive: 78%
COC(=O)c1ccccc1NC(=O)CSc1nc(-c2ccccc2)cc(C(F)(F)F)n1 | active: 25%
CCOC(=O)c1c(C)[nH]c(C)c1S(=O)(=O)N1CCC(C(=O)Nc2ccc(F)cc2F)CC1 | inactive: 86%
CCOc1ccccc1NC(=O)Cn1c(=O)n(CCCC(=O)NCCOC)c(=O)c2cc(OC)c(OC)cc21 | inactive: 69%
CC(=O)c1ccc(NC(=O)c2ccc3c(c2)N(Cc2cccc(Cl)c2)C(=O)c2ccccc2S3(=O)=O)cc1 | inactive: 92%
O=C(CSc1nnc(COc2cccc3ccccc23)n1CC1CCCO1)NC1CC1 (centres undefined) | inactive: 68%
Cc1ccc(NC(=O)CN2CCCN(Cc3ccccc3Cl)S2(=O)=O)c(C)c1 | active: 17%
COc1ccc(CNC(=O)Cn2ccc3cc(S(=O)(=O)N4CCCCC4)ccc32)c(OC)c1 | inactive: 72%
O=c1c2ccccc2nc2n1CCS2 | inactive: 82%
COc1ccccc1CNC(=O)CCc1c(C)nc2cc(-c3ccccc3OC)nn2c1C | inactive: 58%
CCn1c(NN)nc2sc3c(c2c1=O)CC(C)(C)OC3 | inactive: 104%
Cc1cc(Cl)ccc1NC(=O)CN1C(=O)CSc2ccc(S(=O)(=O)N(C)C)cc21 | inactive: 77%
CCOCCc1nn2c(=O)cc(COC(=O)COc3ccccc3Cl)nc2s1 | inactive: 88%
CCOc1ccc2nc(Nc3nc4c(c(=O)[nH]3)CCCC4)nc(C)c2c1 | inactive: 95%
COc1ccccc1CNC(=O)C1CCCN(c2nn3cc(-c4ccc(F)cc4)nc3s2)C1 (centres undefined) | inactive: 84%
Cc1ccc(Cn2ccn(CC(=O)Nc3ccccc3C(F)(F)F)c(=O)c2=O)cc1 | inactive: 113%

Compound | survival
CCOc1ccc(CCNC(=O)CS(=O)Cc2nc(-c3ccc(C)cc3)oc2C)cc1OCC (centres undefined) | inactive: 76%
Cc1ccc2c(c1)sc1nc(-c3cc4ccccc4oc3=O)cn12 | inactive: 82%
CCc1ccccc1NC(=O)Cn1nnc(-c2nc(-c3ccc(C)cc3)no2)c1N | inactive: 88%
CCOc1cc(CNC(=O)CCCn2c(=O)c3cccn3c3cccnc32)cc(OCC)c1OCC | inactive: 83%
COc1ccc(CCNC(=O)c2cc(Nc3cc(C)cc(C)c3)nc3ccccc23)cc1OC | inactive: 97%
CCc1ccccc1NC(=O)CSc1ncc(S(=O)(=O)c2ccccc2)c(N)n1 | inactive: 81%
CCCN(CCC)S(=O)(=O)c1ccc(C)cc1 | inactive: 97%
CC(=O)Nc1cccc(NC(=O)CSc2cn(CC(=O)N(C(C)C)C(C)C)c3ccccc23)c1 | inactive: 62%
Cc1oc(-c2ccc(Cl)cc2)nc1Cn1c(=O)cc(C)c2c(C)nn(-c3cccc(F)c3)c21 | inactive: 82%
Cc1ccc(C(=O)Nc2ccc(C(=O)OCc3cc(=O)n4nc(C5CC5)sc4n3)cc2)cc1 | inactive: 83%
CCn1cc(C(=O)N2CCN(c3ccc(F)cc3)CC2)c(=O)c2cc(S(=O)(=O)N3CCOCC3)ccc21 | inactive: 93%
COc1ccc(N2CCN(c3c4c(nc5nncn35)CCC4)CC2)cc1 | inactive: 78%
NC(=O)CCc1c[nH]c2ccccc12 | inactive: 78%
CCOC(=O)Cn1c(=O)oc2cc(S(=O)(=O)N3CCN(c4ccccc4F)CC3)ccc21 | inactive: 65%
CCN(CC)C(=O)Cn1cc(SCC(=O)Nc2ccccc2F)c2ccccc21 | inactive: 103%
COc1ccc(NC(=O)c2nnn(Cc3nc(-c4cc(OC)c(OC)c(OC)c4)oc3C)c2C)cc1 | inactive: 61%
CCN(c1cccc(C)c1)S(=O)(=O)c1ccc2c(c1)NC(=O)CCS2 | inactive: 72%
COc1cccc(CNC(=O)C2CCN(c3nn4c(=O)cc(C)nc4s3)CC2)c1 | inactive: 89%
Cc1cccc(N(CC(=O)NCCSCc2ccc(Cl)cc2)S(C)(=O)=O)c1C | active: 33%
O=C(NC1CC(=O)N(c2ccccc2)C1)c1ccc(Br)o1 (centres undefined) | inactive: 87%
COc1ccc2cc(C#N)c(SCC(=O)N3c4ccccc4CC3C)nc2c1 (centres undefined) | inactive: 92%
O=C(NCCCN1CCN(c2cccc(Cl)c2)CC1)Nc1ccccc1C(F)(F)F | inactive: 73%
CCCC(C)C(=O)Nc1nc2ccccc2s1 (centres undefined) | inactive: 76%

Compound | survival
O=C(COc1ccc(S(=O)(=O)NC2CCCCC2)cc1Cl)NCc1ccccn1 | inactive: 104%
CCOc1ccc(NC(=O)c2cc3c(n(-c4ccc(OC)cc4)c2=O)CC(C)(C)CC3=O)cc1 | inactive: 60%
COc1ccccc1Cn1c(CNS(=O)(=O)c2ccccc2Cl)nc2cccnc21 | inactive: 91%
CC(=O)c1cccc(NC(=O)c2cccn2-c2nnc(N3CCCCC3)s2)c1 | inactive: 92%
CC(C)(C)c1ccc(Oc2nc3ccccn3c(=O)c2/C=C(\C#N)c2nc3ccccc3[nH]2)cc1 | inactive: 93%
O=C(CCC(=O)N1CC2CCCN2c2ccccc21)NCc1ccccc1 (centres undefined) | inactive: 74%
CCOC(=O)c1ccc(NC(=O)C2=C(C)Nc3nc(SCc4ccc(Cl)cc4)nn3C2c2ccc(C)cc2)cc1 (centres undefined) | inactive: 77%
CCCCOc1ccc(C(=O)N2CCC(c3nc4ccccc4o3)CC2)cc1 | inactive: 71%
CCOc1ccc(CC(=O)NCCc2csc(-c3ccc(C(F)(F)F)cc3)n2)cc1 | inactive: 77%
Cc1nn(-c2ccccc2)c(=O)c2ccccc12 | inactive: 92%
Cc1nn(C(=O)COc2ccccc2)c(C)c1Sc1ccccc1 | inactive: 115%
O=C(c1ccc2c(c1)N(Cc1ccc(Cl)cc1)C(=O)c1ccccc1S2=O)N1CCN(c2ccccc2F)CC1 (centres undefined) | inactive: 85%
O=C(O)c1cccc2cc[nH]c12 | inactive: 101%
CSc1cccc(NC(=O)C2CCN(c3ncnc4c3nc3n4CCCCC3)CC2)c1 | inactive: 97%
CCOc1ccccc1NC(=O)C(NS(=O)(=O)c1ccc2c(c1)CCC(=O)N2)c1ccccc1 (centres undefined) | inactive: 94%
O=C(NC1CCCCCC1)c1cc2c(Cl)nc3ccccc3c2s1 | inactive: 116%
CC(C)NC(=O)CC(=O)Nc1ccc2nc3n(c(=O)c2c1)CCCCC3 | inactive: 72%
COc1ccc(NC(=O)c2ccc3c(SCC(=O)O)c4c(nc3c2)CCCC4)c(OC)c1 | inactive: 55%
O=C(NCCCN1CCN(c2ccc(F)cc2)CC1)c1cnn(-c2ccc(F)cc2)c1-n1cccc1 | inactive: 70%
CCc1ccc(NC(=O)CSc2ccc(-c3ccccn3)nn2)cc1 | inactive: 114%
